Among all 43,000 compounds or so, about 200 (0.47%) were called active. Not shown: some 12% with an inconclusive outcome. Calls follow the shape of the dose curve; as a rule, active = well fitted cell-killing curve with a large enough effect; inconclusive = small, poorly fitted or top-dose-only effect, or effect the other way; inactive = flat fitted curve, though single readings scatter. The list shows a part of the results.
assay: Cell viability qHTS assay in S16 Pmp22-F2sN cells; conditions: S16 Pmp22-F2sN Schwann cells viability, CellTiter-Glo, 24 h; series mostly up to 57.5 µM; activity change, negative = cytotoxicity: at the top concentration; also: nearly all actives have a fitted effect of over 65% in size
In short: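 S16 Pmp22-F2sN Schwann cells (500-1,000/well) in phenol-red-free DMEM with 10% FBS received 23 nL compound by pin tool for 24 h at 37 °C. Viability was then read as CellTiter-Glo luminescence after 15 min at room temperature.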
% is scaled to controls: 0 for no effect and ±100 for the full control effect.

SMILES	activity change, negative = cytotoxicity
O=C(COc1ccccc1)Nc1ccc2nc(SCC(=O)N3CCCC3)sc2c1	inactive: 3.54%
COc1ccc(C2CC(=O)Oc3c2c(=O)n(C)c2ccccc32)c(OC)c1OC (centres undefined)	inactive: -0.422%
Cc1ccc(Nc2c(-c3ccc(C)cc3)nc3c(C)cccn23)cc1	inactive: -3.98%
CC(C)c1ccc(Nc2c(-c3ccc(N(C)C)cc3)nc3cnccn23)cc1	inactive: -0.575%
COc1ccc(-c2noc(CSc3nc4ccccc4[nH]3)n2)cc1	inactive: -28.4%
O=C(NCCc1ccc(Cl)cc1)C(=O)NCC(c1cccs1)S(=O)(=O)c1ccccc1 (centres undefined)	inactive: 1.38%
Cc1ccc(C)c(NC(=O)CSc2nc(=O)n(Cc3ccncc3)c3c2CCC3)c1	inactive: 9.18%
CC(=O)N1c2ccc(S(=O)(=O)NCCC(=O)N(C)Cc3ccccc3)cc2CC1C (centres undefined)	inactive: -0.409%
COC(=O)c1cc2sc(C)cc2n1Cc1nc(-c2ccc(C)cc2)oc1C	inactive: 8.4%
O=C(Cc1ccc(Cl)cc1)Nc1ccc2oc(-c3ccccc3F)nc2c1	inactive: -0.608%
CNC(=O)c1c(NC(=O)Cc2coc3ccc(OC)cc23)sc2c1CCCC2	inactive: 0.789%
COc1cccc(CN(C(=O)c2oc3ccccc3c2C)C2CCS(=O)(=O)C2)c1 (centres undefined)	inactive: -2.22%
CCS(=O)(=O)N1CCc2cc(C(=O)NCc3ccccc3Cl)ccc21	inactive: 1.73%
Cc1ccc(NC(=O)CCN2C(=O)c3ccccc3Sc3ncccc32)c(Cl)c1	inactive: 0.098%
COc1ccccc1NC(=O)c1sc2nc(C)c(C(=O)Nc3ccc(C)cc3C)c(-c3ccccc3Cl)c2c1N	inactive: 5.64%
Cc1ccc2oc(=O)c3cc(C(=O)NCCc4ccc(Cl)cc4)sc3c2c1	inactive: -0.71%
CCOc1ccccc1NS(=O)(=O)c1cc(-c2cnc(C3CC3)o2)ccc1C	inactive: 1.38%
CCc1ccccc1NC(=O)NC(CC)Cn1nnc2ccccc2c1=O (centres undefined)	inactive: 3.11%
O=C(c1cc2ccc3cccnc3c2[nH]1)N1CCN(c2cccc(Cl)c2)CC1	inactive: -26.7%
COc1ccc(NC(=O)C(C(C)C)N2Cc3ccccc3C2=O)cc1 (centres undefined)	inactive: -17.8%
CCCCc1nn2c(=O)cc(COC(=O)c3ccccc3C)nc2s1	inactive: 0.0757%
COCCCNc1nc(NCc2ccc(C)cc2)c2cnn(C)c2n1	inactive: -5.72%
CN1CCN(C(CNC(=O)c2c(F)cccc2F)c2ccc3c(c2)OCO3)CC1 (centres undefined)	inactive: 17.7%
Cc1cccc(N2CCN(C(=O)c3cc4ccc5cccnc5c4[nH]3)CC2C)c1 (centres undefined)	inactive: -2.83%
CCN(C(=O)Cn1ncc2c(=O)oc3ccccc3c21)c1ccccc1F	inactive: 0.618%

SMILES	activity change, negative = cytotoxicity
O=c1c2ccccc2n(Cc2cccc(Cl)c2)c(=O)n1Cc1ccccc1	inactive: -4.81%
COCCc1nn2c(=O)cc(COC(=O)c3ccc(Br)cc3)nc2s1	inactive: -10.9%
CCC(C)NC(=O)c1sc2nc3n(c(=O)c2c1C)CCC3 (centres undefined)	inactive: 2.34%
O=c1oc2ccccc2cc1-c1nc(-c2cccs2)no1	inactive: 12.7%
COc1ccccc1-c1nc(SCC(=O)c2ccc(Cl)cc2)n[nH]1	inactive: -23.1%
CCC(=O)Nc1sc2c(c1C(=O)Nc1ccc(Br)cc1)CCCCC2	inactive: -25.3%
COc1ccc(CCNC(=O)c2ccc(Cn3c(=O)[nH]c4cc(OC)c(OC)cc4c3=O)cc2)cc1OC	inactive: 23.4%
Cc1cc(C)c(NC(=O)CSc2nc3c([nH]c4ccccc43)c(=O)n2C)c(C)c1	inactive: 10.2%
CCCOc1cccc(C2c3c(oc4ccc(F)cc4c3=O)C(=O)N2c2nc(C)c(C(C)=O)s2)c1 (centres undefined)	inactive: 10.6%
CCCCNC(=O)CN1CCN(c2ncc(NC(=O)c3ccc(Cl)cc3)cc2C(=O)O)CC1	inactive: 8.34%
CCc1ccccc1N(CC)C(=O)C1CCN(c2ncnc3c2nc2n3CCCCC2)CC1	inactive: -4.72%
CC1CCCCN1CCCNC(=O)Cn1ncc2c3ccccc3n(C)c2c1=O (centres undefined)	inactive: 18.5%
Cc1ccc(S(=O)(=O)c2cc3cc(C(=O)Nc4ccc(C)cc4C)ccc3oc2=O)cc1	inactive: -9.81%
CCc1ccccc1NC(=O)c1ccc(F)c(S(=O)(=O)N2CCN(c3cccc(Cl)c3)CC2)c1	inactive: 15.8%
CC1CCN(S(=O)(=O)c2ccc3nc(N4CCN(c5ccc(F)cc5)CC4)ccc3c2)CC1	inactive: -2.01%
Cc1ccc(O)c(-c2n[nH]c3c2C(c2ccc(F)cc2)N(Cc2ccco2)C3=O)c1 (centres undefined)	inactive: -17.2%
O=C(COCc1cc(-c2cccs2)on1)Nc1cc(C(F)(F)F)ccc1Cl	inactive: 14.4%
CC(C)OCCCNC(=O)CCCN1C(=O)CCn2nc(-c3cccn3C)cc21	inactive: -1.22%
COc1cccc(C(=O)N(Cc2ccc(C)o2)C2CCS(=O)(=O)C2)c1 (centres undefined)	inactive: -10.7%
COc1ccc(-c2cc(C(F)(F)F)nc(NCc3ccc(F)cc3)n2)cc1	inactive: 13.5%
COc1cc(C(CC(=O)Nc2ncccc2C)N2Cc3ccccc3C2=O)cc(OC)c1OC (centres undefined)	inactive: 7.43%
CCN(c1ccccc1)S(=O)(=O)c1ccc(NC(=O)c2nc(SC(C)C)ncc2Cl)cc1	inactive: -4.14%
O=C(OCc1cc(=O)n2nc(C3CC3)sc2n1)c1ccc(NC(=O)c2ccccc2F)cc1	inactive: 7.1%
Cc1ccc(C(=O)N2CCC(C)CC2)cc1NC(=O)c1nsc2ccccc12	inactive: 0.306%

From PubChem BioAssay AID1508642 (National Center for Advancing Translational Sciences (NCATS), 2021)
